Assay results taken from publication PMC11790949, “A multiplex method for rapidly identifying viral protease inhibitors” (Molecular Systems Biology, 2025).

Columns and labels:
Format in all cases: cell-based
YES1 = YES1 (Homo sapiens, UniProt P07947)
SARS-CoV-3CL = SARS-CoV-3CL (Severe acute respiratory syndrome coronavirus, UniProt P0C6X7)
HIV-1-PR = HIV-1-PR (Human immunodeficiency virus type 1 group M subtype B, UniProt P04585); conditions: HIV-1-PR model; for Max relative growth: OD595 relative to lowest drug concentration
SARS-CoV-PLP = SARS-CoV-PLP (Severe acute respiratory syndrome coronavirus, UniProt P0C6X7)

UniProt P07947, sequence (P07947 whole entry): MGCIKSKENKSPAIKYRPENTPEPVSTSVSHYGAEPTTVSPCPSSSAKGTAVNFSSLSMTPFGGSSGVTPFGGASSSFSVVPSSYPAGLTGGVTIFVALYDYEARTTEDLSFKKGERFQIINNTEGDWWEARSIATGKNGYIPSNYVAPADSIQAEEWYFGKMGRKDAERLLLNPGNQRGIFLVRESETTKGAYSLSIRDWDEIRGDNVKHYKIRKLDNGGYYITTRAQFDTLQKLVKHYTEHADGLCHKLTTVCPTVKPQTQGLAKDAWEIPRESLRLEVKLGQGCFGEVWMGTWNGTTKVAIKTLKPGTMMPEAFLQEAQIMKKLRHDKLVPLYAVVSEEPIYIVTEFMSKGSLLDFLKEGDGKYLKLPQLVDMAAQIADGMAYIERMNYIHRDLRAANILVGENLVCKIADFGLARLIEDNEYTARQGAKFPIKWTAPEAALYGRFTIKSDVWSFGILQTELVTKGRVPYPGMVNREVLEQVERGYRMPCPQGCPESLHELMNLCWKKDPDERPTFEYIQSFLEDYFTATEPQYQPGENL

For `CC1(C)c2ccccc2-c2nc3ccccc3cc2C1O` (stereo not shown) [NSC19824], the “Inhibitor / Validation (true or false inhibitor in individual yeast model)” value (“Inhibitor / Validation” below) (YES1) was “FALSE” and the Max relative growth (YES1) was 0.6378.

`N#Cc1cnn(-c2cccc(Cl)c2)c1-n1cccc1` [NSC326644] was tested, and the “Inhibitor / Validation” value (YES1) was “FALSE” and the Max relative growth (YES1) was 0.6887.

For `NC(N)=NC(=S)Nc1ccc(Cl)cc1` [NSC403374], the Max relative growth (SARS-CoV-3CL) was 1.932.

With `CC1CO/C(=C2\C(=O)OCC2C)C1` (stereo not shown) [NSC134784] the “Inhibitor / Validation” value (HIV-1-PR) was “FALSE” and the Max relative growth (HIV-1-PR) was 0.6442.

In the case of `O=C(Oc1ccc2ccc(=O)oc2c1)c1ccco1` [CB6778425], the Max relative growth (SARS-CoV-3CL) was 3.799.

`CCc1cc(=O)oc2cc(OC(=O)c3ccco3)ccc12` [CB6728297] gave a Max relative growth (SARS-CoV-3CL) of 3.978.

With `Cc1cc2c(cc1C)N(C(=O)CCl)CC(=O)N2` [NSC138389] the Max relative growth (SARS-CoV-PLP) was 2.65.

In the case of `N#C/C(=C\c1c[nH]c2ccccc12)C(N)=O` [NSC163144], the “Inhibitor / Validation” value (HIV-1-PR) was “FALSE” and the Max relative growth (HIV-1-PR) was 1.071.

With `O=C(Oc1ccc2ccc(=O)oc2c1)c1cccs1` [CB6762077] the Max relative growth (SARS-CoV-3CL) was 3.255.
